From patent US20220411536A1 (NUMAB THERAPEUTICS, published 2022)

T1: recombinant human IL-23R (custom-made by Trenzyme) (human)
T1 sequence (looked up): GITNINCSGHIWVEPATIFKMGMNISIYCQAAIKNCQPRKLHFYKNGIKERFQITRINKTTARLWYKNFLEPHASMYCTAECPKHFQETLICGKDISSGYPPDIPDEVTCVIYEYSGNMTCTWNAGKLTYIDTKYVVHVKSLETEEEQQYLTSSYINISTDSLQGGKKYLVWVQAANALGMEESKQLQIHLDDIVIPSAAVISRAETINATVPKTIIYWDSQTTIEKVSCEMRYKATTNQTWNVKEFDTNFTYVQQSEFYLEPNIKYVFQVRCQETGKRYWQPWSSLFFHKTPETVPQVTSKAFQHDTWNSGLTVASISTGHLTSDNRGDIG

B1: PRO1454 (multispecific antibody)
chain 1: [not shown - about 200 residues]GGGGSGGGGSDIQMTQSPSSLSASVGDRVTITCQSSQSVFSNNYLAWFQQKPGQSPKRLIYSASTLASGVPSRFSGSGSGTDFTLTISSLQPEDFATYYCLGSYACSSADCYVFGTGTKVTVLGGGGGSGGGGSGGGGSGGGGSEVQLVESGGGLVQPGGSLRLSCAASGFSLSSYDMSWVRQAPGKGLAWIGASYASGPTYYASWAKGRFTISRDNSKNTVYLQMNSLRAEDTATYFCARGGWTGTSHSNIWGQGTLVTVSS
chain 2: [not shown - about 120 residues]ASTKGPSVFPLAPSSKSTSGGTAALGCLVKDYFPEPVTVSWNSGALTSGVHTFPAVLQSSGLYSLSSVVTVPSSSLGTQTYICNVNHKPSNTKVDKKVEPKSCGGGGSGGGGSDIQMTQSPSSLSASVGDRVTITCQASQSINDYLAWYQQKPGKAPKLLIYKASTLASGVPSRFSGSGSGTDFTLTISSLQPEDFATYYCQQAYIITDIDNVFGTGTKVTVLGGGGGSGGGGSGGGGSGGGGSQVQLQESGPGLVKPSETLSLTCKVSGFSFSSGYDMCWIRQPPGKGLEWIGCVVAGSVDITYYASWAKGRVTISVDSSKNQFSLKLSSVTAADTAVYYCARKDAYSDAFNLWGQGTLVTVSS
B2: PRO1497 (multispecific antibody)
chain 1: [not shown - about 200 residues]GGGGSGGGGSDIQMTQSPSSLSASVGDRVTITCQSSQSVFSNNYLAWFQQKPGQSPKRLIYSASTLASGVPSRFSGSGSGTDFTLTISSLQPEDFATYYCLGSYACSSADCYVFGTGTKVTVLGGGGGSGGGGSGGGGSGGGGSEVQLVESGGGLVQPGGSLRLSCAASGFSLSSYDMSWVRQAPGKGLAWIGASYASGPTYYASWAKGRFTISRDNSKNTVYLQMNSLRAEDTATYFCARGGWTGTSHSNIWGQGTLVTVSS
chain 2: [not shown - about 120 residues]ASTKGPSVFPLAPSSKSTSGGTAALGCLVKDYFPEPVTVSWNSGALTSGVHTFPAVLQSSGLYSLSSVVTVPSSSLGTQTYICNVNHKPSNTKVDKKVEPKSCGGGGSGGGGSDIQMTQSPSSLSASVGDRVTITCQASQSINDYLAWYQQKPGKAPKLLIYKASTLASGVPSRFSGSGSGTDFTLTISSLQPEDFATYYCQAAYIITDIDNVFGTGTKVTVLGGGGGSGGGGSGGGGSGGGGSQVQLQESGPGLVKPSETLSLTCKVSGFSFSSGYDMCWIRQPPGKGLEWIGCVVAGSVDITYYASWAKGRVTISVDSSKNQFSLKLSSVTAADTAVYYCARKDAYSDAFNLWGQGTLVTVSS
B3: PRO1456 (multispecific antibody)
chain 1: [not shown - about 200 residues]GGGGSGGGGSDIQMTQSPSSLSASVGDRVTITCQSSQSVFSNNYLAWFQQKPGQSPKRLIYSASTLASGVPSRFSGSGSGTDFTLTISSLQPEDFATYYCLGSYACSSADCYVFGTGTKVTVLGGGGGSGGGGSGGGGSGGGGSEVQLVESGGGLVQPGGSLRLSCAASGFSLSSYDMSWVRQAPGKGLAWIGASYASGPTYYASWAKGRFTISRDNSKNTVYLQMNSLRAEDTATYFCARGGWTGTSHSNIWGQGTLVTVSS
chain 2: [not shown - about 120 residues]ASTKGPSVFPLAPSSKSTSGGTAALGCLVKDYFPEPVTVSWNSGALTSGVHTFPAVLQSSGLYSLSSVVTVPSSSLGTQTYICNVNHKPSNTKVDKKVEPKSCGGGGSGGGGSDIQMTQSPSSLSASVGDRVTITCQASENIYSFLAWYQQKPGKAPKLLIYSASKLAAGVPSRFSGSGSGTDFTLTISSLQPEDFATYYCQQTNRYSNPDIYNVFGTGTKVTVLGGGGGSGGGGSGGGGSGGGGSEVQLVESGGGLVQPGGSLRLSCAASGIDFNSNYYMCWVRQAPGKGLEWIGCIYVGSHVNTYYANWAKGRFTISRDNSKNTVYLQMNSLRAEDTAVYYCATSGSSVLYFKFWGQGTLVTVSS

Key:
[1] = biological target: CD3e on Jurkat PD-1 NFAT reporter T cells or on T cells of human PBMCs (human); test: cell-based or functional assay
[2] = biological target: T2, human PD-L1 expressed on cells (CHO-PD-L1, HCC1954, HCC827) (human); test: flow cytometry, inhibition of biotinylated PD-1 binding to HCC827 cells
T2 construct: whole, on cells; also called hPD-L1; PD-L1 expressing cells

[3] = biological target: T2, human PD-L1 expressed on cells …; test: flow cytometry, inhibition of biotinylated PD-1 binding to HCC1954 cells
[4] = biological target: T1, recombinant human IL-23R (custom-made …); test: SPR, immobilised IL-23R
[5] = biological target: T3, recombinant human CD3E ECD (SinoBiological, cat. 10977-H08H) (human); test: SPR, immobilised CD3e ECD, two-state model
T3 construct: extracellular domain; bought protein; also called CD3s

[6] = biological target: T3, recombinant human CD3E ECD …; test: SPR, immobilised CD3e ECD, two-state model (ka1)
[7] = biological target: T3, recombinant human CD3E ECD …; test: SPR, immobilised CD3e ECD, two-state model (kd1)

Binder | IC50, NFAT reporter, HCC1954 cells [1] | IC50 [2] | IC50 [3] | rel. max. activation vs PRO1497, NFAT reporter, HCC1954 cells [1] | binding result [4] | KD1 [5] | Kd [5] | kd2 [5] | kon [6] | koff [7]
B1 | 0.148 nM | 1.24 mg/L | 0.205 mg/L | – | – | – | – | – | – | –
B2 | 0.361 nM | – | 0.352 mg/L | 100% | no binding (tested: 90 nM highest concentration) | 25.7 nM | 20.6 nM | 0.00286 s⁻¹ | 231000 M⁻¹ s⁻¹ | 0.00594 s⁻¹
B3 | 0.291 nM | – | – | 75% | – | – | – | – | – | –
